Measured values taken from the supplement of paper PMC10126150.
Sequences with one replicate were seen in a single cluster, so their values are uncertain.

Test system: ATP
Test: switch fluorescence ratio, 500 uM ATP over buffer (Cy3 cluster intensity, sum of 5 cycles each) (fold (ratio)); higher = stronger signal-on switching upon ATP binding; sequences stand for … in TCGTCGGCAGCGTCAGATGTGTATAAGAGACAGTTTTTTTTTTTTTTTTTTTTTTTTT…TC
Conditions: aptamer strand: ATP DNA aptamer (quencher-CACCTGGGGGAGTATTGCGGAGGAAGG + anchor), 100 nM annealed; ATP concentration: 500 uM; one replicate
In short: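 Imaging in selection buffer was followed by imaging after 15 min with 500 uM ATP at 22 °C, for Cy3-labelled switching-strand clusters annealed to 100 nM quencher-labelled ATP aptamer on a modified Illumina MiSeq flow-cell. Five of these buffer/ATP cycles ran, separated by NaOH stripping and re-annealing. The fluorescence ratio per cluster is summed target-cycle over summed buffer-cycle Cy3 intensity, averaged per switch-domain sequence; clusters outside 100-1000 RFU were removed.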
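Also: ATP exposure 15 min at 22 °C before imaging.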

GTTAGTTGCA
switch fluorescence ratio: 0.947

GCAATGCCGT
switch fluorescence ratio: 1.03

CGTTAGACGT
switch fluorescence ratio: 1.03

CATAGGGGGC
switch fluorescence ratio: 1.02

AACTGGCAGA
switch fluorescence ratio: 0.979

GCGTTTTCTT
switch fluorescence ratio: 0.99

TCGAATAGGG
switch fluorescence ratio: 1.02

GAAAATTTTG
switch fluorescence ratio: 0.979

CAAATAAACG
switch fluorescence ratio: 1.02

AAAAGAGTGG
switch fluorescence ratio: 0.995

GGGAGAT
switch fluorescence ratio: 1.01

TCTGGGATTC
switch fluorescence ratio: 1.02

GGGAGTGTTA
switch fluorescence ratio: 0.982

ACAGGGTCT
switch fluorescence ratio: 1.03

CCTTGGGGAC
switch fluorescence ratio: 2.77

TTGTCACGTT
switch fluorescence ratio: 0.972

AGAGGCTTGT
switch fluorescence ratio: 1

TTTTTGCAGC
switch fluorescence ratio: 1.02

GTGTGTCCGT
switch fluorescence ratio: 1.01

TAGAATTCGG
switch fluorescence ratio: 0.979

TATATGTTAG
switch fluorescence ratio: 1.02

TATTAGCAAG
switch fluorescence ratio: 1.06

GGCGAGCAAG
switch fluorescence ratio: 0.992

GGAGATTGTC
switch fluorescence ratio: 0.957

TGGGATCTTC
switch fluorescence ratio: 0.977

ACGTTTTACT
switch fluorescence ratio: 1.19

AGACGATCGG
switch fluorescence ratio: 1.03

CCCTCCATCT
switch fluorescence ratio: 1.1

TGACCGCCTC
switch fluorescence ratio: 1.53

GGCGAAGAGG
switch fluorescence ratio: 1.03

CCCCTTGAAA
switch fluorescence ratio: 1.01

GTGCTGAACT
switch fluorescence ratio: 0.981

GAAAGAATAA
switch fluorescence ratio: 1.08

ATGCCTGTGG
switch fluorescence ratio: 0.999

ACGCGAGTTA
switch fluorescence ratio: 1.03

GGAGGGCTTA
switch fluorescence ratio: 0.99

TTACTCTCCT
switch fluorescence ratio: 1.14

TTCATAAGTG
switch fluorescence ratio: 1

ACGATTA
switch fluorescence ratio: 1.03

GCTAGGCGGC
switch fluorescence ratio: 1.03

GCGTTGTTTC
switch fluorescence ratio: 1.03

TAGTTCTGGT
switch fluorescence ratio: 0.944

CGGACGCTCC
switch fluorescence ratio: 3.41

TCTTACCCTC
switch fluorescence ratio: 1.02

AGCCTGTTGT
switch fluorescence ratio: 0.962

GAGGCGCTGT
switch fluorescence ratio: 0.964

GTACTTTGTG
switch fluorescence ratio: 0.992

AGGAATAAAT
switch fluorescence ratio: 0.988

GGGTCCCTGG
switch fluorescence ratio: 1.1

TAGTCATGG
switch fluorescence ratio: 1.02

TTCGTACCTC
switch fluorescence ratio: 1.06

TGTATGGCTG
switch fluorescence ratio: 1.03

AATTATGTGG
switch fluorescence ratio: 0.979

GCAGTCGGTA
switch fluorescence ratio: 1.05

CGGCGGGATC
switch fluorescence ratio: 1.11

GTTGAGAGCT
switch fluorescence ratio: 0.943

ATTGAATTT
switch fluorescence ratio: 0.967

GACCCTCACG
switch fluorescence ratio: 1.06

AAGGCGCTCA
switch fluorescence ratio: 0.998

GCACGCAGT
switch fluorescence ratio: 1.01

TGACAAAAG
switch fluorescence ratio: 0.985

CCATATACAC
switch fluorescence ratio: 1.34

TTCTACGTCA
switch fluorescence ratio: 1.26

ATGGCTTGAT
switch fluorescence ratio: 0.989

CCCAGACGGA
switch fluorescence ratio: 0.987

CGACCCCATT
switch fluorescence ratio: 1.22

AGTGGATCTA
switch fluorescence ratio: 0.999

CAAGTACTGG
switch fluorescence ratio: 1

GCCCTCTTCT
switch fluorescence ratio: 0.995

AACCGCTCCA
switch fluorescence ratio: 1.2

TCTTAGTGT
switch fluorescence ratio: 0.997

GGATGGCGCT
switch fluorescence ratio: 0.975

TCTTCGTGTT
switch fluorescence ratio: 0.957

TAAGGTTGAT
switch fluorescence ratio: 0.98

GAGAGGGCGC
switch fluorescence ratio: 0.97

ACACTTGGGG
switch fluorescence ratio: 0.949

CACGCACTGG
switch fluorescence ratio: 1.73

CAAGCTATA
switch fluorescence ratio: 1.18

CCAACGGAGG
switch fluorescence ratio: 1.01

CCCCGGCGT
switch fluorescence ratio: 1

TTACTACGTT
switch fluorescence ratio: 1

GTTTCCTTTG
switch fluorescence ratio: 1.07

ATCGAATGGC
switch fluorescence ratio: 1.02

CTGGTAAAAA
switch fluorescence ratio: 1.05

AAACGGCCAA
switch fluorescence ratio: 0.987

AAGATTCATC
switch fluorescence ratio: 1.02

GCGATGCACG
switch fluorescence ratio: 1.12

ACTGAGCCTA
switch fluorescence ratio: 1.01

CGTTATCAGC
switch fluorescence ratio: 0.951

GCTCATAACT
switch fluorescence ratio: 1.03

TTAAACCGTT
switch fluorescence ratio: 0.994

GTGGTGCATA
switch fluorescence ratio: 1.01

GCCGTGATGA
switch fluorescence ratio: 1.03

TAATAAGTGT
switch fluorescence ratio: 0.976

CTTGTTTAAA
switch fluorescence ratio: 1.01

GGCTCTTTAG
switch fluorescence ratio: 1.01

CAAATATAAG
switch fluorescence ratio: 0.996

TTACCCCAT
switch fluorescence ratio: 1.98

TCGTGATAGC
switch fluorescence ratio: 1.23

CGACCTGGGG
switch fluorescence ratio: 0.905

GTTCGTTGGA
switch fluorescence ratio: 1.01

AAGACCGCAA
switch fluorescence ratio: 2.48

TGTGGTAGCA
switch fluorescence ratio: 0.987

CTCGTCTACA
switch fluorescence ratio: 0.965

GTCCGTAGCC
switch fluorescence ratio: 2.37

TCGTGGCTTG
switch fluorescence ratio: 1

GCCCGTAGAC
switch fluorescence ratio: 2.28

CGAACGGGTC
switch fluorescence ratio: 1.02

ACAACAGATT
switch fluorescence ratio: 0.986

GCAGATGCTT
switch fluorescence ratio: 1.02

TCTGGGACGG
switch fluorescence ratio: 1.01

GTTGTCTCGT
switch fluorescence ratio: 1.04

AATCTAAGTT
switch fluorescence ratio: 0.959

GCCTAAGAT
switch fluorescence ratio: 1

TGGCGGGCG
switch fluorescence ratio: 1.06

AACCCGATCT
switch fluorescence ratio: 1.07

AATATTCTC
switch fluorescence ratio: 0.998

GATGCCGGAG
switch fluorescence ratio: 0.949

ACTTCGTGCG
switch fluorescence ratio: 1.05

GCGCGTATGG
switch fluorescence ratio: 1.01

GACCTCACTC
switch fluorescence ratio: 1.38

TACTAGTTTT
switch fluorescence ratio: 1

GGGAGTCCGG
switch fluorescence ratio: 0.991

AGCGTCTCAA
switch fluorescence ratio: 1.01

GATATCTTCA
switch fluorescence ratio: 1.04

ATCTAATGTG
switch fluorescence ratio: 0.968

AGGCAACAGA
switch fluorescence ratio: 1.04

TAAGCACAGG
switch fluorescence ratio: 1.33

CCGTGGCCAT
switch fluorescence ratio: 1.1

ATGAAGTGG
switch fluorescence ratio: 1

ATCAAATTGG
switch fluorescence ratio: 1.06

TTATTCTCCC
switch fluorescence ratio: 1

ATGCTTGTGT
switch fluorescence ratio: 1.04

TAAAAAAGCT
switch fluorescence ratio: 1.03

TGGTCAGACT
switch fluorescence ratio: 0.977

CGCCAGAAAC
switch fluorescence ratio: 1.11

AGAGTAGACC
switch fluorescence ratio: 0.997

CAAGCTTTGA
switch fluorescence ratio: 0.976

TAGGACGTTC
switch fluorescence ratio: 1.01

CGTTGTCTTT
switch fluorescence ratio: 1.07

CTCCTAGGAA
switch fluorescence ratio: 1.12

CGAACGCCGG
switch fluorescence ratio: 1.04

AAGATCCGTT
switch fluorescence ratio: 0.923

GATTCACGCT
switch fluorescence ratio: 1

CTGGTGCGGC
switch fluorescence ratio: 0.988

CCCTGCAGGG
switch fluorescence ratio: 1.04

ATATGCATCG
switch fluorescence ratio: 1.05

TGATATCATT
switch fluorescence ratio: 0.993

CTTAATACGC
switch fluorescence ratio: 1.34

GTCCGGAACT
switch fluorescence ratio: 1.08

GCGGCGTGGT
switch fluorescence ratio: 0.991

ACAGGTGAAA
switch fluorescence ratio: 0.981

GGCTGTTAGC
switch fluorescence ratio: 0.986

CTTTGTACAA
switch fluorescence ratio: 0.992

TAATAGAGTG
switch fluorescence ratio: 0.978

TAGTTTTCGG
switch fluorescence ratio: 0.962

GTGTCTAGAG
switch fluorescence ratio: 1
